The whole screen tested about 310,000 compounds, of which about 2,200 (0.71%) showed an effect of 50% or more. Effects have a minus sign here. The list shows a part of the results.

The text below walks through data of PMC4336329 (PLoS ONE, 2015).

human ether-à-go-go-related gene (hERG) potassium channel, sequence (Q12809 whole entry, looked up): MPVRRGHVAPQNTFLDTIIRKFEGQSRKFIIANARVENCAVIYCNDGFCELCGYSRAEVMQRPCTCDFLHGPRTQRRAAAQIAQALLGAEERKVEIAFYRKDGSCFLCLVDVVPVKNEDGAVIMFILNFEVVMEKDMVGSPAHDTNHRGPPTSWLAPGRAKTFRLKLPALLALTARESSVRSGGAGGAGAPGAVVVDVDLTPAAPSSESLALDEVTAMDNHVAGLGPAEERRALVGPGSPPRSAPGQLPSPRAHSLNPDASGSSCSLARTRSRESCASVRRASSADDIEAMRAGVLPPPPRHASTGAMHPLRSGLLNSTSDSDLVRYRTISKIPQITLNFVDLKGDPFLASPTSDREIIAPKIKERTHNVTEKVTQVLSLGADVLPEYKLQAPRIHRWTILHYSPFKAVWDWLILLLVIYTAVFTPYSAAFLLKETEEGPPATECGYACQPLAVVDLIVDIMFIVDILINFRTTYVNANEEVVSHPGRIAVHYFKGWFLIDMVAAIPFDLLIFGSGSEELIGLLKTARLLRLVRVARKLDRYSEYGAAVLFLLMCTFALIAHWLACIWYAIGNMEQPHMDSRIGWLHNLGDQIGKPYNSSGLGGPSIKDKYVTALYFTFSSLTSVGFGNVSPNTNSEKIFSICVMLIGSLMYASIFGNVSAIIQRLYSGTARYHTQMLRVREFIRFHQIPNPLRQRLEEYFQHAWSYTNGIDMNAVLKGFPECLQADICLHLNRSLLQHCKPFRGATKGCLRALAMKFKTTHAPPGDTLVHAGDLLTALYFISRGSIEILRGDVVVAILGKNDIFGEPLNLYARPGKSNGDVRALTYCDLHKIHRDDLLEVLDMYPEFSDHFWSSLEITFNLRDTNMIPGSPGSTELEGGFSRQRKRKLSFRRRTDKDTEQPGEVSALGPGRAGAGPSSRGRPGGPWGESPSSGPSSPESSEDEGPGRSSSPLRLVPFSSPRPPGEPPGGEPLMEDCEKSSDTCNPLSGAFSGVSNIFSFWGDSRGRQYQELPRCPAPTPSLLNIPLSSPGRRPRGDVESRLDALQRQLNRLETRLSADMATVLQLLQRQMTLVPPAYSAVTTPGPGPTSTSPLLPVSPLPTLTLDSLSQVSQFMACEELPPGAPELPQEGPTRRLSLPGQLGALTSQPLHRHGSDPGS

This experiment concerns the target human ether-à-go-go-related gene (hERG) potassium channel (human, UniProt Q12809). Nature of the experiment: primary screen, population patch clamp on CHO cells stably expressing hERG.
With `CCN1C(=O)[C@H]2[C@@H](c3ccc(-c4ccccc4)cc3)N[C@@](Cc3ccccc3)(C(=O)OC)[C@H]2C1=O.O=C(O)C(F)(F)F`, the “hERG current change (%, negative = inhibition) at 1uM” value came to 2.63%.
With `Cc1ccc(O)c(NC(=O)c2ccc3c(c2)C(=O)N(Cc2ccco2)C3=O)c1`, the “hERG current change (%, negative = inhibition) at 1uM” value was found to be 9.74%.
Next, `Cc1cnc(NC2=NCCC2)s1`: 10.6%; `COc1ccc(C(=O)NCCS(=O)(=O)N(C)C2CCCCC2)cc1`: -0.94%; `Cc1cc(C)c(-n2[nH]nnc2=S)c(C)c1`: 8.4%.
For `CC(NC(=O)Nc1ccc(F)cc1F)c1ccncc1` (centres unmarked), the “hERG current change (%, negative = inhibition) at 1uM” value was 9.09%.
For `COc1ccccc1N(C(=O)CN1C(=O)c2ccccc2S1(=O)=O)C(C(=O)NCC1CCCO1)c1ccc(F)cc1` (centres unmarked), the “hERG current change (%, negative = inhibition) at 1uM” value is on record as 8.21%.
On to `Cc1nc(CN2CCN(C(=O)c3ccc(C(C)(C)C)cc3)CC2)cs1.Cl`, for which the “hERG current change (%, negative = inhibition) at 1uM” value stood at 4.42%.
For `CC(NS(=O)(=O)c1ccc(N)cc1)C1CC2CCC1C2` (centres unmarked), the “hERG current change (%, negative = inhibition) at 1uM” value turned out to be 9.12%.
The same measure for `CCOC(=O)Cc1csc(NS(=O)(=O)c2ccc(OC)cc2)n1`: 0.922%; for `COCCCNC(=O)Nc1ccc2c(c1)N(C)C(=O)CS2`: 3.56%.
With `NS(=O)(=O)c1ccc(CNC(=O)Cc2c(F)cccc2Cl)cc1`, the “hERG current change (%, negative = inhibition) at 1uM” value came to 20.6%.
Turning to `CCCc1nc(SCC(=O)N2CCc3ccccc3C2)c2ccccc2n1`, the “hERG current change (%, negative = inhibition) at 1uM” value is listed as 0.708%.
Regarding `Cc1cc(C)nc(SCCN2CCOCC2)n1.Cl`, the “hERG current change (%, negative = inhibition) at 1uM” value is reported as 12.4%.
Consider `COCc1cc(OC(=O)N(C)C)nc(-c2ccccc2)n1`, for which the “hERG current change (%, negative = inhibition) at 1uM” value was determined as 10.9%.
For the molecule `C#CCN1C(=O)S/C(=C\c2ccc(-c3ccc(Cl)c(C(=O)O)c3)o2)C1=O`, the “hERG current change (%, negative = inhibition) at 1uM” value is 17.2%.
Consider `CCOC(=O)C1CCN(S(=O)(=O)c2cccc(-c3cn4cccnc4n3)c2)CC1`, for which the “hERG current change (%, negative = inhibition) at 1uM” value turned out to be 4.76%.
On to `O=c1c(Cl)c(NCCO)cnn1-c1cccc(Cl)c1`, for which the “hERG current change (%, negative = inhibition) at 1uM” value is recorded as 13.3%.
Next, `COc1ccc([N+](=O)[O-])cc1-n1cccc1`: 5.41%; `CCCCc1ccc(NC(=S)NCc2cccc(OC)c2)cc1`: 7.95%; `NC(=O)NNC(=S)Nc1cccc2ccccc12`: 14.5%.
Next, `Cc1cccc(NC(=O)COc2ccc(/C=C\c3[nH]c(=O)[nH]c(=O)c3[N+](=O)[O-])cc2)c1`: 18.9%; `C[n+]1c(-c2ccccc2)c2cc(N)ccc2c2ccc(N)cc21.[Br-]`: 15.1%; `COc1cc(NC(=O)CCc2c(C)nc3nc(C)nn3c2C)cc(OC)c1`: -12.9%.
`O=C(O)c1ccc(Cl)c(S(=O)(=O)Nc2ccccc2C(=O)Nc2ccc(Cl)cc2)c1`: the “hERG current change (%, negative = inhibition) at 1uM” value is on record as 14.9%.
`Cc1ccc(C)c(S(=O)(=O)N(C)C2CCS(=O)(=O)C2)c1` (centres unmarked): the “hERG current change (%, negative = inhibition) at 1uM” value worked out at 7.93%.
Turning to `CCOC(=O)c1c(-c2ccc(OC)cc2)oc2cc(Br)c(O)cc12`, the “hERG current change (%, negative = inhibition) at 1uM” value was determined as 13.8%.
As for `CCN1CCN(c2ccc(NC(=O)c3ccc(F)cc3)cc2Cl)CC1`, the “hERG current change (%, negative = inhibition) at 1uM” value was -66.8%.
As for `CCCC(C)c1nc(C(N)=O)c2[nH]c(=O)n(-c3ccc(OC)c(OC)c3)c2n1` (centres unmarked), the “hERG current change (%, negative = inhibition) at 1uM” value stood at 6.1%.
With `NS(=O)(=O)c1ccc(SCc2ccccc2)nc1`, the “hERG current change (%, negative = inhibition) at 1uM” value was 12.8%.
As to `CCC(c1nnnn1C(C)(C)CC)N1CCN(c2ccccc2F)CC1` (centres unmarked), the “hERG current change (%, negative = inhibition) at 1uM” value was found to be 21%.
`COc1ccc(OC)c(NS(=O)(=O)c2c(C(=O)N3CCCCCC3)c(C)n(C)c2C)c1`: the “hERG current change (%, negative = inhibition) at 1uM” value is 14.7%.
Consider `COC(=O)/C=C/C(=O)Nc1cccc(C(F)(F)F)c1`, for which the “hERG current change (%, negative = inhibition) at 1uM” value came to 7.93%.
`CC(=O)N1c2ccc(S(=O)(=O)N3CCC(C(=O)NC4CCCCC4C)CC3)cc2CC1C` (centres unmarked): the “hERG current change (%, negative = inhibition) at 1uM” value was 13.4%.
Regarding `O=C(NCCO)C(=O)NCC1OCCCN1S(=O)(=O)c1ccc2c(c1)OCCO2` (centres unmarked), the “hERG current change (%, negative = inhibition) at 1uM” value is reported as -6.45%.
`CS(=O)(=O)c1ccc2nc(NC(=O)CN3CCOCC3)sc2c1`: the “hERG current change (%, negative = inhibition) at 1uM” value turned out to be 19.1%.
Next, `O=C(c1cccc(S(=O)(=O)N2CCOCC2)c1)N1CCCC(C(F)(F)F)C1` (centres unmarked): 6.63%; `C=CCOc1cccc(C2C(C(=O)c3ccco3)=C(O)C(=O)N2Cc2ccncc2)c1` (centres unmarked): 23.9%.
For `CC(=O)Nc1cccc(Oc2cc(C#N)c(C#N)cc2N2CCCCCC2)c1`, the “hERG current change (%, negative = inhibition) at 1uM” value was 8.28%.
Take `COc1ccccc1-c1nnc(N(C)C(=O)C2CCCO2)s1` (centres unmarked): the “hERG current change (%, negative = inhibition) at 1uM” value turned out to be 9.47%.
Regarding `N#C/C(=C/c1ccc(CNS(=O)(=O)c2ccccc2)o1)C(=O)NCc1ccccc1`, the “hERG current change (%, negative = inhibition) at 1uM” value was -2.31%.
Regarding `O=C(NCCc1ccccc1)/C(=C\c1ccc([N+](=O)[O-])cc1)NC(=O)c1ccco1`, the “hERG current change (%, negative = inhibition) at 1uM” value is -59%.
On to `COc1ccc(NC(=O)c2ccco2)cc1NC(=O)COc1ccccc1`, for which the “hERG current change (%, negative = inhibition) at 1uM” value is recorded as 11.6%.
Next, `CCn1c(Cc2ccccc2)nnc1SCC(=O)Nc1ccccc1`: 5.8%.
Consider `Cc1ccc(NC(=O)CCNS(=O)(=O)c2ccc3c(c2)CCC(=O)N3)cc1F`, for which the “hERG current change (%, negative = inhibition) at 1uM” value is on record as 16.1%.
On to `S=C(Nc1ccccc1)Nc1nc2ccccc2n1CCOc1ccc(Cl)cc1`, for which the “hERG current change (%, negative = inhibition) at 1uM” value came to 7.29%.
For `CC(=O)c1cccc(OC(=O)C2=CC=CN3CCS(=O)(=O)N=C23)c1`, the “hERG current change (%, negative = inhibition) at 1uM” value was 7.76%.
`COc1ccc(NC(=O)Nc2ccc(C(=O)N3CCOCC3)cc2)cc1`: the “hERG current change (%, negative = inhibition) at 1uM” value worked out at 9.81%.
In the case of `Nc1nonc1C(=O)NCCNC(=O)c1cccc(Cl)c1`, the “hERG current change (%, negative = inhibition) at 1uM” value was found to be 8.34%.
Consider `CCOc1cc(S(=O)(=O)Nc2ccccn2)ccc1F`, for which the “hERG current change (%, negative = inhibition) at 1uM” value is on record as 8.64%.
Regarding `N#C/C(=C\c1ccccc1)C(=O)Nc1ccccn1`, the “hERG current change (%, negative = inhibition) at 1uM” value came out at 7.18%.
In the case of `CCN(CC)CCn1c(=S)[nH]c2ccc(Cl)cc2c1=O`, the “hERG current change (%, negative = inhibition) at 1uM” value is -49%.
On to `CCCCCC1CC(=O)N(Cc2ccccc2)C(=O)N1` (centres unmarked), for which the “hERG current change (%, negative = inhibition) at 1uM” value was -1.51%.
For the molecule `COc1ccc(OC)c(NC(=O)Nc2ccc3c(c2)OCO3)c1`, the “hERG current change (%, negative = inhibition) at 1uM” value worked out at 15.1%.
Turning to `CN(C)c1oc(-c2ccccc2F)nc1C#N`, the “hERG current change (%, negative = inhibition) at 1uM” value was 7.02%.
For `CCOc1cccc2sc(N(CCCN(C)C)C(=O)c3ccc(S(=O)(=O)N4CCc5ccccc5C4)cc3)nc12.Cl`, the “hERG current change (%, negative = inhibition) at 1uM” value is listed as 10%.
